From the supplement of paper PMC3724861
The other results are listed elsewhere or left out.

system: T1, Caupolican (Caup) homeodomain DNA-binding domain; assay: PBM E-score (8-mer, recovered from the published 9-mer minima) (E-score (dimensionless, -0.5 to 0.5)); Drosophila protein; higher = stronger relative binding preference, active = 0.31 or more
T1 sequence: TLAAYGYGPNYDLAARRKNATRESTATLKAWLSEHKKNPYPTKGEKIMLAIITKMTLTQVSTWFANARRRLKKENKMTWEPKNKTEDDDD
Description: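 Protein binding microarray (PBM): in vitro transcribed/translated Caupolican (Caup) homeodomain DNA-binding domain (residues 214-303) applied at 100 nM to a universal 8-mer PBM array (Agilent AMADID 015681). The 8-mer enrichment score (E-score, range -0.5 to 0.5) was computed, and each 9-mer score is the minimum E-score of its two constituent 8-mers. The E-score is the same for a 9-mer and its reverse complement; 0.31 is the stated binding threshold.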

Sequence	PBM E-score
AGAATACA	inactive: 0.257
GATGGCGA	inactive: -0.0291
CGGGAGGA	inactive: -0.179
AGGGCAGG	inactive: -0.156
AAATTTCA	inactive: -0.0347
ACTGGGTA	inactive: -0.0761
ATCTTATG	inactive: 0.0612
ACCTGGCA	inactive: -0.0292
CGTTTCAA	inactive: 0.0328
ATTGGATA	inactive: 0.11
TGCTAACA	inactive: 0.196
AATATCGT	inactive: 0.14
GTAGACCA	inactive: 0.0682
ACCAGTAT	inactive: 0.0627
GGGCACCC	inactive: -0.271
AAGAAACA	inactive: 0.216
TACCACTA	inactive: 0.159
GAGGCCAA	≥ -0.05
CCGATTAC	inactive: 0.0889
AATTGAGA	inactive: -0.0204
CAGGACAG	inactive: 0.141
ATCAAATC	inactive: 0.169
ATTTATAG	inactive: 0.146
AATGATCG	inactive: 0.0217
AGCTTGTC	inactive: 0.261

Sequence	PBM E-score
ACCACGAG	inactive: -0.0396
CGCCTCGC	inactive: -0.21
CGCCCGTA	inactive: -0.195
CATTAGAA	inactive: 0.1
ACTTACTC	inactive: 0.0632
ACTATGAT	inactive: 0.0991
ACATTAGC	inactive: 0.0684
GCACGGCC	inactive: -0.145
ATGGGACA	≥ 0.189
CAAACTGA	inactive: 0.0599
AATGGTAA	inactive: 0.0989
GAAATAAA	inactive: 0.0685
CGCCTGAG	inactive: -0.163
CGACCGCG	inactive: -0.231
ACACACCT	inactive: 0.169
CATAAGTA	inactive: 0.034
CGGACGCA	inactive: -0.198
ATATTACG	inactive: 0.16
CCACCCCA	inactive: -0.035
GTGTGCAA	inactive: 0.03
ACGATGAG	≥ 0.0856
GCATTCAA	inactive: 0.018
CCCTAATA	inactive: -0.014
GCTGTTGA	inactive: 0.0755
CGATCACA	inactive: 0.155

Sequence	PBM E-score
GAGACATA	inactive: 0.215
ACTAGTAC	inactive: 0.265
CTAGACAG	inactive: 0.0443
CGTTCTAG	inactive: 0.0128
CTCGAAAG	inactive: -0.138
ACTCCCAA	inactive: -0.0491
GCCTTTTA	inactive: -0.0859
ACTAAAAA	inactive: 0.036
GATCTTCA	inactive: 0.0402
AATTAAGA	inactive: 0.0984
GAGACCAA	inactive: -0.0656
CTACAGCA	inactive: 0.081
CAATGACA	inactive: 0.293
AGTCCCGC	inactive: -0.198
ACGTTGGA	inactive: 0.0001
GTACTGGA	inactive: 0.164
CAGCCTTC	inactive: -0.297
AAGCTGTC	inactive: 0.0365
GAGTCTGC	inactive: -0.198
GAACGTAA	inactive: 0.0362
CCCTAACA	inactive: 0.0568
AGGCATCG	inactive: -0.159
AGGGACGC	inactive: -0.166
ACCTGCGC	inactive: -0.133
GATTCTCA	inactive: 0.00058

Sequence	PBM E-score
AGAACGTC	inactive: 0.00485
CCAAGTAC	inactive: 0.0484
AGGCCCTC	inactive: -0.232
AACGAGAT	inactive: 0.108
CGTTAAGC	inactive: -0.0697
GGCTTACC	inactive: -0.223
CTTCACTC	inactive: -0.0659
AAAACACT	inactive: 0.0862
ACCTCTTC	inactive: 0.016
GCTATCTA	inactive: 0.0384
AGACTGGC	inactive: -0.142
CTGTTGCA	inactive: 0.112
AAAACGCC	inactive: -0.0844
GAGGGCCA	inactive: -0.227
CATTGTGG	inactive: 0.00422
ATTCATTA	inactive: 0.119
TCCCAGCA	inactive: -0.151
CATCGTTA	inactive: 0.101
GACCTCAC	inactive: -0.092
AGGCCTAC	inactive: -0.129
CGGTTAAC	inactive: 0.0296
ATATCCTG	inactive: 0.0991
AACAGATT	inactive: 0.131
AAGCCGTG	inactive: -0.0835
CGGGTTTC	inactive: -0.056

Sequence	PBM E-score
CGGTATAA	inactive: 0.0588
GTCATGGA	inactive: -0.0262
TAGCCGCA	inactive: -0.157
AAAGGACA	inactive: 0.181
AGAAAACA	inactive: 0.247
CGGAAACC	inactive: -0.0787
ACAAATGC	inactive: 0.138
AACGGGGT	inactive: -0.173
CCCTCAAA	inactive: -0.0958
GTGAGAAC	inactive: -0.00322
CACTGAGC	inactive: -0.0579
AGCAACCC	inactive: -0.127
AGGGATCA	inactive: -0.0397
ATTAATTC	inactive: 0.156
GTAAAGAC	inactive: 0.051
TACACTGA	inactive: 0.207
GCCCTGAC	inactive: 0.0132
ACATTCGT	≥ 0.226
AGTATCGG	inactive: 0.0739
TCACACGA	inactive: 0.132
ATGATTAA	inactive: 0.12
ACAGACTG	inactive: 0.0636
GAAGCGAA	inactive: -0.0567
ATCGGCCG	inactive: -0.227
ACAAAGGA	inactive: 0.131

Sequence	PBM E-score
CTCCAATA	inactive: -0.0437
CAATTAGG	inactive: -0.00295
GACGGTAA	inactive: -0.0932
AGACGTCG	inactive: -0.0683
CACCTATA	inactive: 0.132
AGTTTCTC	inactive: -0.0465
AAATGTAA	inactive: 0.277
GGAAACCA	inactive: -0.1
CAATCAAC	inactive: 0.139
ACTTGTCG	inactive: 0.266
GGCCTGAA	inactive: -0.23
ACTCTACG	inactive: -0.07
ACAGCGTA	inactive: 0.0321
GAAGGACA	inactive: 0.155
AAGGGCAA	inactive: -0.0594
CATTCAGC	inactive: -0.0683
ATACCCCG	inactive: -0.104
GATCAGAA	inactive: -0.00553
AGTGACAG	inactive: 0.136
CTACAAAG	inactive: 0.0968
GTCGCGCA	inactive: -0.0349
CTACCCAA	inactive: -0.027
CATGTCCA	active: 0.384
CATGGACA	inactive: 0.293
CAGCTATG	inactive: 0.0202

Sequence	PBM E-score
CAGTGTTA	inactive: 0.24
ATAATGTA	inactive: 0.273
GCGTGGCA	inactive: -0.205
AACAGGCG	inactive: 0.0552
CCGCTTGA	inactive: -0.109
CAGTCATA	inactive: 0.0563
TAGGGCAA	inactive: -0.0731
GATCGACC	inactive: -0.0614
ACCCGACC	inactive: -0.101
CCAATTGA	inactive: 0.108
CAAAATAC	inactive: 0.222
AGCGATAT	≥ 0.08
GCCCTCCC	inactive: -0.286
ATGCACTA	inactive: 0.077
GTTATTCA	inactive: 0.197
TAAGTGAA	inactive: 0.0877
GGCAAGAC	inactive: -0.106
CGCCACCC	≥ -0.0463
GACCCAAA	inactive: -0.0868
ATCACCTG	inactive: 0.116
CGTACAGC	inactive: 0.00506
CAGATCGG	inactive: -0.116
GCGAGCCA	inactive: -0.166
ACTCTGCA	inactive: -0.0238
GCTAAAGC	inactive: -0.121

Sequence	PBM E-score
CCTAGATC	inactive: -0.0411
ATTATTGG	inactive: -0.0153
GTAGTGTA	inactive: 0.161
CCTCTTTA	inactive: -0.0673
ATGGACAT	inactive: 0.276
AACCCATC	inactive: -0.00243
ACCATTTC	inactive: 0.0677
CCCGTAAG	inactive: -0.0131
GGGTGAGA	inactive: -0.129
CAGAAATG	inactive: 0.139
CGGTTCAG	inactive: -0.146
ACGCGATG	inactive: 0.00867
CCTTTCAA	inactive: -0.0664
CCAGAAGA	inactive: -0.0527
GCGCAGAC	inactive: -0.0987
AAGGCTTC	inactive: -0.117
CTCCCGAC	inactive: -0.126
ACAGCCCC	inactive: -0.157
CACCACAG	inactive: 0.00755
CCCTGACC	inactive: -0.143
ACCAAACA	inactive: 0.191
CGACTCTA	inactive: -0.0694
ATGATAGA	inactive: 0.0767
GAGAGATA	inactive: 0.0472
CCTACAAG	inactive: 0.272

Sequence	PBM E-score
CTCGGTGA	inactive: -0.0741
CTGACGTA	inactive: -0.0256
CCCTCAAG	inactive: -0.16
GTATAGAA	inactive: 0.0915
CAAAGAAC	inactive: 0.0405
CCATCAGA	inactive: -0.105
ACCTCAAC	inactive: 0.0585
ATGAACGG	inactive: 0.0314
AGTGATCG	inactive: 0.0767
ACTGTATA	inactive: 0.143
CTAGCGTC	inactive: -0.0804
GGAGTGGA	inactive: -0.133
GAAAGGCA	inactive: -0.0348
CAACCTAA	inactive: 0.104
CCCTGGTA	inactive: -0.0234
GTCGACGA	inactive: -0.0298
TACGTCCA	inactive: -0.00016
ACGGCGAA	inactive: -0.0619
CATGAAAC	inactive: 0.0872
ATCTGTAC	inactive: 0.247
AAATAACT	inactive: 0.19
AGCTATGG	inactive: -0.0927
CGACACCG	inactive: 0.019
